Laboratory results: PubChem BioAssay AID445 (National Center for Advancing Translational Sciences (NCATS), 2006)
Among all 110,000 compounds or so, about 40 (0.04%) were called active. Inconclusive results, whose numbers are uncertain, are shown with a selection of clear calls. Calls follow the shape of the dose curve; as a rule, active = well fitted curve in the direction sought with a large enough effect in the signal ratio (not every such curve was filed as active); inconclusive = small, poorly fitted or top-dose-only effect, or a change in a side signal; inactive = flat fitted curve, though single readings scatter; the % refers to the signal ratio. Potencies of inconclusive entries are doubtful fits and often do not repeat.
Potency is read from the fitted curve at half-maximal effect.

Assay: IkB Signaling;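 as to IkBa stabilization activation: 0% = basal untreated cells and 100% = reference inhibitor full response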
Conditions: ABC-DLBCL IkBa-CBG/CBR dual luciferase ratio (green luciferase fused to IkBa over red control in OCI-Ly3 lymphoma cells), 4 h; IkBa stabilization activation: at 57.1 µM (top of the series), scaled: untreated 0%, proteasome inhibitor 100% unless noted
In short: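 Luminescence ratio of IκBα-fused green versus native red beetle luciferase in OCI-Ly3 cells, 4 h post-doxycycline with compound; red signal alone, scaled from basal (0%) to zero light (-100%), flagged nonspecific or cytotoxic effects.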
With `Cc1ccccc1Cn1c(CN2CCc3ccccc3C2)nc2c1c(=O)n(C)c(=O)n2C` the “IkBa stabilization activation” value was inactive: 0.84%. For `Nn1c(SCC(=O)Nc2ccc(F)c(F)c2)nnc1C1CCCCC1`, the IkBa stabilization activation was inconclusive: 6.66% [signal inhibitor]. With `Cc1ccc(C2CC(=O)N(Cc3ccc(F)cc3)c3c2c(C)nn3-c2nc(C)cc(C)n2)cc1` (stereo not drawn) the IkBa stabilization activation was inconclusive: 1.54% [signal inhibitor]. For `C=C(C)CN(CC#N)CC(=C)C`, the IkBa stabilization activation was inactive: 0.757% [at 11.4 µM, scaled: untreated 0%, proteasome inhibitor 100%]. For `O=C(CN1CCN(Cc2ccc(F)cc2)C1=O)NCc1ccc(F)cc1`, the IkBa stabilization activation was inconclusive: -2% [signal inhibitor]. In the case of `CCOC(=O)Cn1c(CN(C)Cc2ccccc2)nc2c1c(=O)n(C)c(=O)n2C`, the IkBa stabilization activation is reported as inconclusive: 5.41% [signal inhibitor]. For `Cc1ccc2scc(N3CCCCC3C)c(=O)c2c1` (stereo not drawn), the “IkBa stabilization activation” value was inactive: 5.74%. For `Cc1ccc(NC2(c3ccccc3)C(=O)c3ccccc3C2=O)cc1F`, the IkBa stabilization activation was inconclusive: -0.154% [signal inhibitor]. With `CC1CCN(S(=O)(=O)c2ccc3c(c2)N(CC(=O)NCCCOC(C)C)C(=O)CO3)CC1` the IkBa stabilization activation was inconclusive: 1.93% [signal inhibitor]. In the case of `CCc1ccccc1NC(=O)CN(c1ccccc1OC)S(=O)(=O)c1ccc(C)cc1`, the IkBa stabilization activation is reported as inconclusive: 18.1% [signal inhibitor]. In the case of `Cc1ccsc1CN(C(=O)COc1ccccc1Cl)C1CCS(=O)(=O)C1` (stereo not drawn), the IkBa stabilization activation is reported as inconclusive: 6.87% [signal inhibitor]. With `CN(CC(=O)Nc1ccc2c(c1)OCCO2)S(=O)(=O)c1ccc(Br)s1` the IkBa stabilization activation was inconclusive: 3.38% [signal inhibitor]. In the case of `Cc1nn(CCC(=O)Nc2ccc(Cl)cc2)c(C)c1S(=O)(=O)N1CCCCC1`, the IkBa stabilization activation is reported as inconclusive: 5.07% [signal inhibitor]. In the case of `Cc1c(OCC(=O)OC(C)C)ccc2c3c(c(=O)oc12)CCC3`, the “IkBa stabilization activation” value is reported as inactive: -0.0733%. In the case of `COc1ccc(-c2cc(C(=O)Nc3cc(C(F)(F)F)ccc3Cl)no2)cc1`, the “IkBa stabilization activation” value is reported as inactive: 1.5%. With `COc1ccccc1Cn1cc(C(=O)c2ccccc2)c(=O)c2cc(OC)c(OC)cc21` the IkBa stabilization activation was inconclusive: 0.679% [signal inhibitor]. With `Cc1ccc2c(CC(=O)Nc3nc(C)cs3)coc2c1` the IkBa stabilization activation was inconclusive: -2.01% [signal inhibitor]. For `COC(=O)[C@H](NC(=O)c1cc(-c2ccccc2)nc2ccccc12)c1ccccc1`, the IkBa stabilization activation was inconclusive: 0.416% [signal inhibitor]. For `COc1ccccc1-c1cc2nc(C)c(CCC(=O)NCc3ccco3)c(C)n2n1`, the Potency was inconclusive: 1.58 µM [signal inhibitor, full curve]. In the case of `O=C(O)c1ccc(NC(=O)c2ccc(Cl)c(S(=O)(=O)N3CCCCCC3)c2)cc1`, the Potency is reported as inconclusive: 25.1 µM [signal inhibitor, single point]. For `COc1ccccc1-n1cc(C(=O)NCC(=O)N2CCN(c3ccccn3)CC2)c2ccccc2c1=O`, the “IkBa stabilization activation” value was inactive: -0.115%. For `COC(=O)c1ccc(NC(=O)C(C)Sc2nc(=O)cc(N)n2CCc2ccccc2)cc1` (stereo not drawn), the IkBa stabilization activation was inconclusive: 5.83% [signal inhibitor]. For `Cc1nc2c3ccccc3nc(NNC(=O)CCC(=O)O)n2n1`, the IkBa stabilization activation was inconclusive: -1.21% [signal inhibitor]. For `Cc1ccc(NC(=O)CN2C(=O)CCSc3ccccc32)c(C)c1`, the “IkBa stabilization activation” value was inactive: -0.36%. For `COc1ccc(-c2csc(N(CC3CCCO3)C(=O)c3ccco3)n2)cc1` (stereo not drawn), the IkBa stabilization activation was inconclusive: 3.44% [signal inhibitor]. In the case of `COc1ccc(CCNC(=O)c2ccc3c(c2)nc(C)n3-c2ccc(Br)cc2)cc1OC`, the IkBa stabilization activation is reported as inconclusive: -1.84% [signal inhibitor]. In the case of `COc1ccccc1C(=O)Nc1nnc(SCc2cc(=O)c3ccccc3[nH]2)s1`, the IkBa stabilization activation is reported as inconclusive: 5.41% [signal inhibitor]. With `Fc1ccccc1N1CCN(c2nc3ccccc3n3nnnc23)CC1` the Potency was inconclusive: 1 µM [signal inhibitor, full curve]. With `O=C(c1ccc2c(c1)OCO2)[C@@H]1[C@@H]2C(=O)N(C3CCCCC3)C(=O)[C@@H]2C2c3ccccc3C=CN21` (stereo partly drawn) the Potency was inconclusive: 15.8 µM [signal inhibitor, partial curve]. With `O=C(CN1CCOCC1)OCCCc1ccccc1` the “IkBa stabilization activation” value was inactive: 2.48%. With `CCN(C(=O)c1ccc(C(=O)N(CC)c2ccccc2C)cc1)c1ccccc1C` the IkBa stabilization activation was inconclusive: -1.28% [signal inhibitor]. For `Cc1ccc(-n2c(=O)c3ccc(C(=O)NCc4ccco4)cc3n(Cc3ccccc3Cl)c2=O)cc1`, the “IkBa stabilization activation” value was inactive: -2.55%. In the case of `Brc1cccc(-c2nnn3c2nc(NC2CCCCC2)c2ccccc23)c1`, the Potency is reported as inconclusive: 15.8 µM [signal inhibitor, partial curve]. For `O=C(CC1Oc2ccccc2NC1=O)NC1CC1` (stereo not drawn), the “IkBa stabilization activation” value was inactive: -0.198%. For `COc1ccc(N(C(=O)c2ccco2)C(C(=O)NC2CCCC2)c2ccc(N(C)C)cc2)cc1` (stereo not drawn), the IkBa stabilization activation was inconclusive: 0.371% [signal inhibitor]. For `CCOC(=O)Cc1csc(NC(=O)CSc2nc3cccnc3n2CC)n1`, the IkBa stabilization activation was inconclusive: 2.91% [signal inhibitor]. For `CCS(=O)(=O)c1ncc(Cl)c(C(=O)Nc2ccc(S(=O)(=O)N(C)c3ccccc3)cc2)n1`, the IkBa stabilization activation was inconclusive: -2.59% [signal inhibitor]. In the case of `CC1CCCCN1CCNC(=O)c1ccc(Cn2c(SCc3ccccc3)nc3cccnc32)cc1` (stereo not drawn), the IkBa stabilization activation is reported as inconclusive: 7.23% [signal inhibitor]. With `Cc1noc(C)c1CSCC(=O)N1CCN(c2ccc(F)cc2)CC1` the IkBa stabilization activation was inconclusive: 2.29% [signal inhibitor]. With `Cc1cccc(C)c1Nc1sc(C(=O)c2ccccc2)c(N)c1S(=O)(=O)c1ccccc1` the IkBa stabilization activation was inconclusive: 0.147% [signal inhibitor]. For `Nn1c(Nc2ccccc2)nc2ccccc21`, the “IkBa stabilization activation” value was inactive: 0.6%. In the case of `CCc1cccc(NC(=O)C2CCN(S(=O)(=O)c3ccc(Br)s3)CC2)c1`, the IkBa stabilization activation is reported as inconclusive: 5.99% [signal inhibitor]. With `Cc1ccc(-n2ncc3c(=O)n(Cc4cccc(Cl)c4)cnc32)cc1C` the “IkBa stabilization activation” value was inactive: -0.342%. For `Cc1ccc(C)c(NC(=O)Nc2cc3c(cc2N2CCCCC2)n(C)c(=O)n3C)c1`, the IkBa stabilization activation was inconclusive: -2.33% [signal inhibitor]. With `COc1ccc(Cn2c(C(=O)O)c(CNCc3ccco3)c3ccc(C)cc32)cc1` the IkBa stabilization activation was inconclusive: 0.707% [signal inhibitor]. With `Cc1ccc(NC(=O)Cn2cnc3c(oc4ccccc43)c2=O)cc1Cl` the IkBa stabilization activation was inconclusive: 0.0484% [signal inhibitor]. In the case of `CCSc1ccccc1C(=O)N1CCN(c2nc3ccccc3s2)CC1`, the IkBa stabilization activation is reported as inconclusive: 4.93% [signal inhibitor]. With `COc1cccc(NC(=O)c2oc3ccc(S(=O)(=O)N(C)C4CCCCC4)cc3c2C)c1` the IkBa stabilization activation was inconclusive: 0.894% [signal inhibitor]. In the case of `COC(=O)c1ccc(NC(=O)c2cnn(-c3ccc(Cl)cc3)c2C2CCN(C(=O)OC(C)(C)C)CC2)cc1`, the IkBa stabilization activation is reported as inconclusive: 2.83% [signal inhibitor]. In the case of `Cc1cccc(C)c1NC(=O)CSc1nnc(Cn2nnc(-c3ccccc3)n2)n1-c1ccccc1`, the IkBa stabilization activation is reported as inconclusive: 3.52% [signal inhibitor]. With `Clc1ccc(-c2nnc3sc(-c4ccc(Br)o4)nn23)c(Cl)c1` the IkBa stabilization activation was inconclusive: 11.1% [signal inhibitor]. With `CCc1nn(CC(=O)NCCc2ccc(Cl)cc2)c(=O)c2cc3c(OC)cccc3n12` the “IkBa stabilization activation” value was inactive: 1.4%. In the case of `COc1ccc(NC(=O)N2CCCC3(CCNCC3)C2)cc1`, the IkBa stabilization activation is reported as inactive: 1.52% [at 11.4 µM, scaled: untreated 0%, proteasome inhibitor 100%]. In the case of `Cc1cc2oc(C(=O)N(Cc3ccc(Cl)cc3)Cc3ccco3)c(C)c2cc1Cl`, the “IkBa stabilization activation” value is reported as inactive: -1.24%. With `Cc1cc(C)c(NC(=O)c2cc(C)nc3c2c(C)nn3-c2cccc(F)c2)c(C)c1` the IkBa stabilization activation was inconclusive: -1.14% [signal inhibitor]. With `CCN(CC)C(=O)c1c(NC(=O)c2ccccc2F)sc2c1CCC(C(C)(C)C)C2` (stereo not drawn) the IkBa stabilization activation was inconclusive: 20.7% [signal inhibitor]. In the case of `CC(C)CN(CC#N)CC(C)C`, the IkBa stabilization activation is reported as inactive: -0.0205% [at 11.4 µM, scaled: untreated 0%, proteasome inhibitor 100%]. For `CCCn1c(=O)sc2cc(NC(=O)c3ccccc3Cl)ccc21`, the IkBa stabilization activation was inconclusive: 5.59% [signal inhibitor]. With `COc1ccc(-c2cc(C(=O)Nc3ccc4c(c3)OCO4)no2)cc1` the “IkBa stabilization activation” value was inactive: 0.0979%. For `COc1cccc(N2CCN(C(=O)c3cccn3-c3nnc(N4CCCCC4)s3)CC2)c1`, the IkBa stabilization activation was inconclusive: -2.74% [signal inhibitor]. In the case of `CCC(C)n1c(SCC(=O)Nc2ccccc2C(=O)OC)nc2ccsc2c1=O` (stereo not drawn), the “IkBa stabilization activation” value is reported as inactive: 0.964%. For `COCCCNC(=O)CCCn1c(SCC(=O)c2ccc(Br)cc2)nc2c(sc3ccccc32)c1=O`, the IkBa stabilization activation was inconclusive: 0.971% [signal inhibitor]. With `Cc1ccc(C(=O)NCC(c2ccc(Cl)cc2)N2CCCCC2)cc1` (stereo not drawn) the IkBa stabilization activation was inconclusive: 0.94% [signal inhibitor]. For `CCOc1ccc(C(=O)N2CC(=O)Nc3ccc(C)cc3C2c2ccc(F)cc2)cc1OCC` (stereo not drawn), the IkBa stabilization activation was inconclusive: 2.54% [signal inhibitor]. In the case of `Cc1ccc(Cl)c2sc(NC(=O)c3ccc(S(=O)(=O)N4CCCC4)cc3)nc12`, the IkBa stabilization activation is reported as inconclusive: 1.65% [signal inhibitor]. For `COc1cccc(CNC(=O)c2cccc(N3CCCS3(=O)=O)c2)c1`, the “IkBa stabilization activation” value was inactive: -0.246%. With `C/C(=N/Nc1ccc2ccccc2n1)c1ccccc1O` the Potency was inconclusive: 5.01 µM [signal inhibitor, partial curve]. For `O=C(CSc1nn(-c2ccc(F)cc2)c(=S)s1)NC(=O)NCc1ccco1`, the IkBa stabilization activation was inconclusive: 7.39% [signal inhibitor].
